# Source: PubChem BioAssay AID485344 (National Center for Advancing Translational Sciences (NCATS), 2010)
# The campaign covered roughly 340,000 compounds. About 6,900 (2%) were called active. Cut-off read from the data, not from the text of the source: active = inhibition above about 30%; inactive = below that, where a call was filed. Only a part is listed here, and it is no random draw. Entries without a call were filed so in the source.
# Biological target: D(2) dopamine receptor (Homo sapiens) (UniProt P14416)
# Sequence of UniProt P14416 (P14416 whole entry, looked up): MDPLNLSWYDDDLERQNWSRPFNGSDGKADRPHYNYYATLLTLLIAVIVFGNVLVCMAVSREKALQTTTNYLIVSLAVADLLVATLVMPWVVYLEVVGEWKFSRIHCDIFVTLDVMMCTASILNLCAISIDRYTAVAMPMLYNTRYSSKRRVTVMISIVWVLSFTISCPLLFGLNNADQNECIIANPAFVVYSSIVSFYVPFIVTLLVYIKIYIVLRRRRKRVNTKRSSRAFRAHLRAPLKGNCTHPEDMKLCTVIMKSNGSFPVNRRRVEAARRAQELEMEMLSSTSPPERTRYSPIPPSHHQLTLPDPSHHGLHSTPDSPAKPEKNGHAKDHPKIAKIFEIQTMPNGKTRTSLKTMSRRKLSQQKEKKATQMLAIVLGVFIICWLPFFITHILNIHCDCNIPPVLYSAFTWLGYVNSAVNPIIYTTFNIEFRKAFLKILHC
# Assay: HTS Assay for Allosteric Antagonists of the Human D2 Dopamine Receptor: Primary Screen for Antagonists; note: 0% is about no effect
# Details: HEK293 TREx D2 cells, calcium flux, dopamine EC80; at 10 µM; stronger effect = higher value
# In short: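 Antagonism is scored as inhibition of an EC80 dopamine-evoked calcium signal in a force-coupled, tetracycline-inducible HEK293 T-REx D2 line, with compound present 180 s before agonist.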
row,SMILES,inhibition
1,COc1ccc(NCc2cccn2-c2nnc(N3CCOCC3)s2)cc1OC,10.2%
2,COc1ccc(CNC(=O)Cn2ncc3c(=O)oc4ccccc4c32)c(OC)c1,-9.76%
3,CCCc1nc2ccccc2c(C(=O)OCc2nnc(-c3cc(OC)c(OC)c(OC)c3)o2)c1CC,active: 38%
4,CCCCNC(=O)c1cc(-c2cccnc2)nc2ccc(S(=O)(=O)NCCCC)cc12,-6.5%
5,CC(C)Oc1ccc(S(=O)(=O)N2CCOCC2)cc1NC(=O)Cc1c(F)cccc1Cl,active: 30.7%
6,Cc1ccc(C)c(N2CCN(C(=O)CCS(=O)(=O)c3ccc4c(c3)oc(=O)n4C)CC2)c1,6.6%
7,Cc1ccc(NC(=O)CN2C(=O)C(c3ccc(C)cc3)=NC23CCCCCC3)cc1,-7.36%
8,Cc1ccc(C(=O)N2CCN(Cc3ccc4c(c3)OCO4)CC2)c(Cl)c1,active: 72.6%
9,CCc1ccc(NC(=O)c2cccc(N3CCCS3(=O)=O)c2)cc1,4.73%
10,COc1ccc2c(c1)c(=O)c(S(=O)(=O)c1ccc(Cl)cc1)cn2Cc1cc(C)ccc1C,-12.9%
11,CCN(CC)C(=O)c1sc2c(c1C)c(=O)n(CCc1ccccc1)c(=O)n2Cc1ccc(C)cc1,11%
12,CC(=O)c1c(C)n(S(=O)(=O)c2ccc(Cl)cc2)c2ccc(NS(=O)(=O)c3ccc(Cl)cc3)cc12,22.3%
13,Cc1cc(C)cc(NC(=O)Cn2nc(N3CCN(c4ccccc4)CC3)ccc2=O)c1,-5.34%
14,CC(C)c1ccc(OCC(=O)Nc2cc(-c3ccccc3)no2)cc1,15%
15,COC(=O)c1nn(-c2cccc(C)c2)c2nnc(Cc3ccccc3)c(=O)n12,active: 63.1%
16,COc1ccc(S(=O)(=O)NCCc2sc(-c3cccnc3)nc2C)cc1OC,4.47%
17,COc1cc(CN(C(=O)c2ccccc2Br)c2ccccn2)cc(OC)c1OC,-8.73%
18,COc1ccc(CC(C)N2CCN(c3cccc(C(F)(F)F)c3)CC2)cc1OC (centres undefined),active: 74.3%
19,Cc1ccc(-n2cnc3cc(C(=O)NC4CCCCCC4)ccc32)c(C)c1,-3.96%
20,CCOc1ccc(NC(=O)C2CCC(CNc3c(N4CCC(C)CC4)c(=O)c3=O)CC2)cc1 (centres undefined),active: 30.5%
21,COc1ccc(C)cc1NC(=O)C1CCC(CNS(=O)(=O)c2ccc3c(c2)CCCC(=O)N3)CC1 (centres undefined),13.7%
22,CCc1ccc(Cn2nnc3c(=O)[nH]c(C4CCCN(C(=O)c5cccc(Cl)c5)C4)nc32)cc1 (centres undefined),-12.1%
23,O=C(Nc1ccc(F)cc1)c1ccc(CN2CC(=O)N3CCCCC3C2=O)cc1 (centres undefined),13.4%
24,CCc1ccccc1NC(=O)c1nn(-c2ccc(C)cc2)c(=O)c2c1c1ccccc1n2C,6.51%

row,SMILES,inhibition
1,CCS(=O)(=O)n1nc(-c2ccco2)nc1NCc1ccc(C(C)C)cc1,-6.58%
2,CC(C)c1cc(C(=O)NCc2ccc(F)cc2)no1,-6.58%
3,Cc1ccc(S(=O)(=O)N(CC(O)CN2CCCCC2)c2cccc([N+](=O)[O-])c2)cc1 (centres undefined),active: 35.8%
4,CC(=O)Nc1ccc(NC(=O)C(NC(=O)C2CCC(C)CC2)C(C)C)cc1 (centres undefined),9.58%
5,COc1cccc(OC)c1OCCCN1CCC(Cc2ccccc2)CC1,active: 88.8%
6,CCOC(=O)N1CCN(Cc2nc3cc(NC(=O)c4ccc(F)cc4)ccc3n2C(C)C)CC1,-10.4%
7,COc1ccc(-c2cn3c(n2)sc2cc(C(=O)NCC(C)c4ccccc4)ccc23)cc1 (centres undefined),23.5%
8,Cc1c(Cl)cccc1NC(=O)Nc1nnc(N(C)C2CCCCC2)s1,4.7%
9,CCCCCCNC(=O)CCc1c(C)nc2nc(-c3cc(OC)cc(OC)c3)nn2c1C,-6.82%
10,Cc1ccc(C(=O)c2cn(Cc3cc(C)ccc3C)c3nc(C)ccc3c2=O)cc1,-11.9%
11,CN(C1CCCCC1)S(=O)(=O)c1ccc2c(c1)c(=O)c(C(=O)N1CCN(c3ccc(F)cc3)CC1)cn2C,3.11%
12,CCOCCCNC(=O)C(NC(=O)C1CCC(C)CC1)C(C)C (centres undefined),-2.45%
13,CC(=O)c1cccc(NC(=O)CCS(=O)(=O)c2ccc3c(c2)n(C)c(=O)c(=O)n3C)c1,-1.04%
14,NC(=O)CSc1nc2cc3c(cc2c(=O)n1CCCCCC(=O)NCc1ccc2c(c1)OCO2)OCO3,5.62%
15,COc1ccc(OC)c(NC(=O)CSc2c3c(nc4cc(Cl)ccc24)CCCC3)c1,4.45%
16,Clc1ccc(OCCSc2nnnn2C2CCCCC2)cc1,active: 34.4%
17,CN1CC(=O)N(CC(=O)Nc2cccc(C#N)c2)c2ccccc2C1=O,-0.0575%
18,O=C(Nc1ccccc1C(F)(F)F)C1(S(=O)(=O)c2ccc(Cl)cc2)CC1,-3.7%
19,COc1ccc(OC)c(NC(=O)C2CCCN(S(=O)(=O)c3ccc4[nH]c(=O)ccc4c3)C2)c1 (centres undefined),-2.25%
20,Cc1ccc2nc(CSc3nnc(NC(=O)CC(C)C)s3)cc(=O)n2c1,-3.99%
21,Cc1ccc(Cn2c(CN3CCC(C(=O)NCc4cccnc4)CC3)cc3ccccc32)cc1,-9.84%
22,CCOc1ccc(CNC(=O)CCC(=O)N2Cc3ccccc3Oc3ncccc32)cc1,10.1%
23,Cc1ccn2c(Nc3ccccc3C)c(-c3ccncc3)nc2c1,-3.99%
24,CCN(CCN(C)C)C(=O)Cn1ncc2c([nH]c3ccc(C)cc32)c1=O,-3.08%

row,SMILES,inhibition
1,Cc1ccc(CNC(=O)C2CCN(Cc3nc(-c4ccccc4C)oc3C)CC2)cc1,-10.5%
2,CCCCn1c(CN2CCN(c3ccc(OC)cc3)CC2)nc2c1c(=O)[nH]c(=O)n2C,8.03%
3,Cc1cccc(NC(=O)CSc2nnc(CNC(=O)c3cccc(C)c3)n2-c2ccccc2)c1,-12.3%
4,Cc1ccccc1Cn1c(-c2cccs2)nc2ccccc21,4.64%
5,COc1ccc(-c2noc(CN(C(=O)c3ccccc3Cl)C(C)C)n2)cc1,-3.85%
6,O=C(CCn1c(=O)c2cccn2c2cccnc21)N1CCN(c2ccc(F)cc2)CC1,-5.76%
7,COc1ccc(C(=O)Nc2ccc3nc(SCC(=O)N4CCCC4)sc3c2)cc1,-11.1%
8,CCCC(=O)Nc1nnc(SCc2cc(=O)n3ccccc3n2)s1,-2.58%
9,COc1ccccc1CCNC(=O)Cn1ccc2cc(S(=O)(=O)N3CCCCC3)ccc21,-1.56%
10,O=C(NC1CCCCC1)c1ccc2c(c1)N(Cc1ccccc1F)C(=O)c1ccccc1S2,10.6%
11,Cn1c(=O)c(=O)n(C)c2cc(S(=O)(=O)N3CCCC3C(=O)Nc3cccc(F)c3)ccc21 (centres undefined),12.5%
12,CCOc1ccccc1NC(=O)c1ccc2c(c1)CCN2S(C)(=O)=O,9.7%
13,COc1cc(C2c3c(-c4cc(C)ccc4O)n[nH]c3C(=O)N2Cc2cccnc2)cc(OC)c1OC (centres undefined),3.03%
14,Cc1ccc(-n2c(SCC(=O)N3CCc4ccccc43)nc3c([nH]c4ccccc43)c2=O)cc1,8.67%
15,CCn1cc2nc(SCC(=O)Nc3cc(OC)ccc3OC)n(Cc3ccc(Cl)cc3)c(=O)c2n1,5.36%
16,O=C(Nc1ccc(OC(F)(F)F)cc1)c1cc2c(=O)n3ccccc3nc2s1,-13.8%
17,CCS(=O)(=O)N1CCc2cc(C(=O)Nc3cc([N+](=O)[O-])ccc3C)ccc21,3.54%
18,CCOC(=O)c1c(NC(=O)/C(C#N)=C/c2ccc(OC)cc2)sc2c1CCC2,11%
19,CCc1ccc(NC(=O)c2sc(-n3nc(C)c(CCC(C)C)c3C)nc2C)cc1,14.2%
20,Cc1cccc(C)c1OCC(=O)N(Cc1ccccc1F)C1CCS(=O)(=O)C1 (centres undefined),5.32%
21,COc1ccc(C(=O)N2CC(=O)Nc3ccc(Br)cc3C2c2ccc(F)cc2)cc1OC (centres undefined),9.26%
22,COc1ccc(NC(=O)c2ccc3oc(=O)c(S(=O)(=O)c4ccc(F)cc4)cc3c2)cc1OC,-1.18%
23,CCOC(=O)c1cc(-c2ccc(OC)cc2)n(CCC(=O)NCCN2CCC(C)CC2)c1C,active: 66.4%
24,CCn1cc(S(=O)(=O)N2CCN(Cc3cccc(Cl)c3)CC2)cn1,active: 33.5%

row,SMILES,inhibition
1,COc1ccc(CCn2c(C)nc3c(c(=O)c4ccccc4n3C)c2=O)cc1,active: 49.3%
2,Cc1ccc(-n2cnc3cc(C(=O)NCCC4=CCCCC4)ccc32)c(C)c1,8.86%
3,Cc1cc(NC(=O)c2ccccc2F)ccc1-c1nc2ccccc2s1,-5.47%
4,CCCOc1ccc(NC(=O)CC2C(=O)N(CC)C(=S)N2CCCN2CCN(Cc3ccccc3)CC2)cc1 (centres undefined),active: 33.4%
5,Cc1ccc(Nc2nc(-c3ccccc3)nc3ccccc23)cc1,4.76%
6,Cc1c(C(=O)Nc2ccc(F)cc2F)oc2c1-c1nn(Cc3c(F)cccc3Cl)cc1CC2,-17.4%
7,O=C(NC1CC(=O)N(c2ccc(F)cc2)C1)C1CCCC1 (centres undefined),0.825%
8,Cc1ccc(Cc2cnc(NC(=O)c3ccc4c(c3)CC(c3ccccc3)OC4=O)s2)cc1 (centres undefined),22.8%
9,CC(=O)c1ccc(S(=O)(=O)Nc2ccc(-c3cn4c(C)csc4n3)cc2)cc1,18.8%
10,COc1ccc(C)cc1NC(c1nnc(-c2ccccc2)o1)c1ccc(F)cc1Cl (centres undefined),6.46%
11,CCOC(=O)c1c(NC(=O)c2ccc(C)cc2)sc2c1CCCCC2,-15%
12,C/C(=N\NC(=O)c1nnn(-c2nonc2N)c1CN1CCCCC1)c1ccccc1O,active: 30.1%
13,CCc1ccc(N2CC(c3nnc(NC(=O)c4ccco4)s3)CC2=O)cc1 (centres undefined),12.6%
14,O=C(NCCN1CCN(c2ccccc2F)CC1)c1ccc2nc3ccccc3c(=O)n2c1,active: 56.7%
15,N#Cc1ccccc1NC(=O)CSc1nc(-c2ccccc2)cc(C(F)(F)F)c1C#N,-0.183%
16,COc1ccc(-c2cn3c(n2)sc2cc(C(=O)NCCC4=CCCCC4)ccc23)cc1,-3.12%
17,COc1ccc(OC)c(NC(=O)C(C)n2c(=O)cc(C)c3c(C)nn(-c4ccccc4)c32)c1 (centres undefined),-7.28%
18,Cc1ccc(CNC(=O)c2c[nH]c3ccc(S(=O)(=O)N4CCOCC4)cc3c2=O)cc1,0.0038%
19,Cc1cc(C)n(CCc2nc3c4ccccc4nc(SCc4ccc(F)cc4)n3n2)n1,9.68%
20,O=c1c2cnn(-c3ccc(F)cc3)c2ncn1Cc1ccccc1Cl,-7.4%
21,Cc1ccc(NC(=O)Cn2c(=O)c3ccc(Cl)cc3n3nncc23)cc1,-9.48%
22,CCNC(=O)c1ccc(C)c(-n2c(C)nc3cccnc32)c1,1.69%
